Results: the RNAGym collection of RNA variant scans (doi:10.1093/nar/gkz1192)
Read counts are not given, so values of variants with three or more changes are uncertain.

B1: CPEB3 Ribozyme (parent)
chain: UAACAGGGGGCCACAGCAGAAGCGUUCACGUCGCAGCCCCUGUCAGAUUCUGGUGAAUCUGCGAAUUCUGCUGUAUAUCUC

Variants of: B1
Test: self-cleavage, relative activity (ratio to wild type); higher = more cleavage; in vitro, sequencing
Procedure, shortened: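 Barcoded CPEB3 ribozyme mutants, produced by rounds of error-prone PCR, self-cleaved while being transcribed with T7 RNA polymerase for 5 hours at 37°C and during a subsequent 15 min DNase I step before EDTA was added. Sequencing of template-switched cDNA on Illumina gave cleaved and total reads, and DNA sequencing assigned barcodes to variants. Each variant's relative activity is its cleaved/total read fraction divided by the unmutated ribozyme's fraction, averaged across three batches. A variant needed a minimum of 5 reads.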

Variant	self-cleavage
C44G U54C U72C U76G	0.3
U43C A65G U72A	0.18
U43C A56G U60A	0.21
U43C U72A A77U	0.67
U43A U51C A64U U78C	0.38
A45C A64G U72C U76C	0.39
A45C A56G A65U U80C	0.03
U43C A65U A75U U76C	0.14
U43C G55A A65C	0.51
U43C U54C A64U	0.62
U43G A47G U74A U78C	0.47
U43C U72C A77G	0.69
A45C U58C A64U U76C	0.22
U43C U69G U76C	0.3
A45C G52A U67A	0.13
U43C A64U U72C A77G	0.13
U43C A45U A64G U69A	0.1
U43G U60C U72A	0.48
U43A U54C U60C	0.4
A45C U51C G63A	0.24
A45C U51C U60C	0.21

Variant	self-cleavage
U43C C71U U74A U78G	0.38
U43C U66A U67C	0.14
C44G A45U U51A G55A G70A	0.19
A45C A56U A75G	0.07
A45C A56G A75U	0.21
U43A U51C A57U	0.43
U43C U51C U54C	0.57
U43C A45U A47G	0.14
C44A U58C U69A U74C	0.19
U43C A56G U58A	0.15
U43G U51C U69C	0.16
U43C A57C U60C U66C U72C	0.29
U43C U49G A64U U76A	0.09
C44A A47C U49C	0.12
U43C C62A G63A	0.13
U43A U54C A56U U74A	1.05
U43C A64G U72C A75G	0.53
U43A U51C U54G	0.91
U43C U51C A56C A57G	0.07
U43G G46A U60C	0.16
U43C U51A A56G U72A	0.19

Variant	self-cleavage
U43C U51A A56G U72C	0.23
U43C U51C G63U	0.98
C44G U51C U66C	0.2
C44A A56U U72A	0.14
U43C U67C C71G	0.14
U43C U66C U80C	0.21
U43C U51C C81U	0.67
U43C U51A A64G U76G	0.45
C44A U60G U78C	0.14
U43A U51C A57G A75U U76C	1.18
C44U A47G U49A	0.12
U43C U58C U78C	0.26
U43C G46A U49A A56U U72C	0.06
C44A A64G U72A G73C A77U	0.61
U43C A56G U72A U74C	0.24
U43C A45G U66C U72C	0.1
C44A A56G U78C	0.27
U43C U51C U66C	0.45
U43C U49C U66C U74A	0.1
U43C A45G G46A U69C	0.02
U43C U51C U58C	0.18

Variant	self-cleavage
U43C U51C U58A	0.17
A45C A65G U66C U69A U80C	0.09
U43C A64U C81U	0.32
U43C A45G A56U U78C	0.39
U43C A56G C68G U72C U76G	0.07
A45C A57G C62A A64G U69A A75G	0.16
U43C U48C U54A U60A	0.19
U43C C50A U51C U74C	0.61
U43C G53A U74A A75G	1.01
U43C A56G U69C U80C	0.15
A45G A47G G53A U80G	0.94
U43C A47G U76C	0.5
U43A U54G U60C U76A	0.18
U43C U51C U54C U58C	0.14
U43C U60A U67A	0.27
U43C A45G A57G U69A U72C U78C	0.09
U43C A45U U54C	0.18
U43C A64G U74C	0.85
A45C U54A A65G	0.16
U43C A65G G73A	0.69
